Measurements: PubChem BioAssay AID1461 (National Center for Advancing Translational Sciences (NCATS), 2008)
About 2,300 (1%) of roughly 220,000 compounds were called active. This list was built around the results that the source calls inconclusive (neither active nor inactive); the mix of calls is not that of the screen. Calls follow the shape of the dose curve; as a rule, active = well fitted inhibition curve with a large enough effect; inconclusive = small, poorly fitted or top-dose-only effect, or effect the other way; inactive = no such curve, though single readings can be large or run the other way. Potencies of inconclusive entries are left out as doubtful fits.

Each molecule was assayed against Neuropeptide S receptor (Homo sapiens) (UniProt Q6W5P4) (assay: qHTS Assay for Antagonists of the Neuropeptide S Receptor: cAMP Signal Transduction). Conditions: CHO-NPSR cells, cAMP TR-FRET, antagonist mode; series mostly up to 38.3 µM.
Chain of UniProt Q6W5P4 (Q6W5P4 whole entry, looked up): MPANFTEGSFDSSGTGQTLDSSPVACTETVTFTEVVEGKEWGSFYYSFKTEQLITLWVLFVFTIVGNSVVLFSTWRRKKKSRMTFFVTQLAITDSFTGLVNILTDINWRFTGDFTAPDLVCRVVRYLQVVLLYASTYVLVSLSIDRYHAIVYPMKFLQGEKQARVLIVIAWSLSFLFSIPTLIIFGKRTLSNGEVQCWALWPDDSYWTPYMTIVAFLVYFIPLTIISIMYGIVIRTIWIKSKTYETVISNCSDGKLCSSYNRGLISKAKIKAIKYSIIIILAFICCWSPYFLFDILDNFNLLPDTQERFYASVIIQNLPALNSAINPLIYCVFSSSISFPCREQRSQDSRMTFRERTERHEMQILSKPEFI
Also: nearly all actives have a fitted effect of over 50% in size.
Potency is read from the fitted curve at half-maximal effect; tags tell the direction and shape of the fitted curve.

SMILES | Potency
C=CCn1c(SCC(=O)Nc2ccc(-c3nc4ccc(C)cc4s3)cc2)nnc1-c1ccccc1 | inconclusive [inhibitor, single point]
COc1ccc(Br)cc1/C=C/C(=O)Nc1c(C)cccc1C | inconclusive [inhibitor, single point]
O=C(Cn1nnc(-c2ccncc2)n1)N(C1CCCCC1)C1CCCCC1 | inconclusive [inhibitor, single point]
CCOC(=O)C1CCCN(CC(=O)Nc2c(C(=O)OC)[nH]c3ccc(Cl)cc23)C1 (stereo not given) | inconclusive [inhibitor, single point]
CCCS(=O)(=O)c1c(S(=O)(=O)CCC)c2c(C)cccn2c1C(=O)OC | inactive
Cc1cccc(-n2c(SCN3C(=O)c4ccccc4C3=O)nc3ccccc3c2=O)c1 | inconclusive [inhibitor, single point]
CCOc1cc(/C=C2\CCC/C(=C\c3cc(Cl)c(O)c(OCC)c3)C2=O)cc(Cl)c1O | inconclusive [inhibitor, partial curve]
O=C(Oc1cccnc1)c1cccc(Cl)c1 | inconclusive [activator, full curve, poor fit]
O=C(Nc1cccc(S(=O)(=O)N2CCCCC2)c1)c1ccc2c(=O)n3c(nc2c1)CCCCC3 | inconclusive [inhibitor, partial curve]
Cc1ccc(S(=O)(=O)Nc2ccccc2C(=O)Nc2nc(-c3ccc(F)cc3)cs2)cc1 | inconclusive [inhibitor, single point]
CCCCCn1c(CCNC(=O)c2cccs2)nc2ccccc21 | inconclusive [inhibitor, single point]
COc1ccc(N(C(=O)Cc2cccs2)C2C=CS(=O)(=O)C2)cc1 (stereo not given) | inactive
Cc1c([N+](=O)[O-])c(C(=O)Sc2ccc(Br)cc2)nn1C | inconclusive [activator, single point]
O=C(Nc1ccccc1N1CCN(C(=O)c2ccccc2)CC1)c1cccc(Cl)c1 | inactive
Cc1cc(C)nc(N2CCC(C(=O)O)CC2)n1 | inconclusive [inhibitor, single point]
O=C(N/N=C\c1ccccc1OCc1ccccc1)c1ccco1 | inactive
Cc1cccc(N2C(=O)CC(c3ccc(F)cc3)C3=C2COC3=O)c1 (stereo not given) | inactive
O=[N+]([O-])c1cccnc1N1CCCCC1 | inactive
Cc1cc(C)cc(Oc2ccccc2C=O)c1 | inconclusive [activator, single point]
N#CC1=C(N)OC2=C(C(=O)CCC2)C1c1ccccc1 (stereo not given) | inactive
